# About 4,000 (4.3%) of roughly 94,000 compounds were called active. Inconclusive results, whose numbers are uncertain, are shown with a selection of clear calls. Calls follow the shape of the dose curve; as a rule, active = well fitted inhibition curve with a large enough effect; inconclusive = small, poorly fitted or top-dose-only effect; inactive = no such curve, though single readings can be large or run the other way. Potencies of inconclusive entries are doubtful fits and often do not repeat.
# Experiment: Cytotoxic Profiling in NIH 3T3 Cell Line of Diverse Libraries Using Quantitative High-Throughput Screening; also: nearly all actives have a fitted effect of over 55% in size
# Details: NIH 3T3 viability, CellTiter-Glo ATP luminescence, 48-72 h; series mostly up to 96.7 µM
# How it was run: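 ATP-dependent luminescence (CellTiter-Glo) served as the viability signal for NIH 3T3 cells treated with compound for 48 or 72 hr at 37 °C.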
# Potency is read from the fitted curve at half-maximal effect; tags tell the direction and shape of the fitted curve.
row,Compound,Potency
1,O=C(c1ccc(Cl)s1)N1CCC(n2cnnc2C2CC2)CC1,inactive
2,CN(C)c1cccc(-c2nc(C3CC(=O)N(c4ccc(F)cc4)C3)no2)c1 (stereo unspecified),"inconclusive: 44.7 µM [inhibitor, partial curve, poor fit]"
3,O=C(NCc1ccc(F)cc1)c1nc(-c2ccc(Cl)cc2Cl)c2cnccn12,"inconclusive: 15.8 µM [inhibitor, full curve]"
4,CN1CCCCCC(O)c2cc(C(=O)NCc3cc(F)cc(F)c3)ccc21 (stereo unspecified),"inconclusive: 44.7 µM [inhibitor, partial curve, poor fit]"
5,COc1ccc2[nH]c(C(=O)N3CCC4(CC3)CC(c3nc(C)no3)N(C)C4)cc2c1 (stereo unspecified),inactive
6,Cc1nc(-c2cccc(Cl)c2)n(Cc2ccc(C#N)cc2)c(=O)c1CCO,"inconclusive: 44.7 µM [inhibitor, partial curve, poor fit]"
7,COc1ccc(C(=O)NC2CCN(C(=O)c3ccc(-c4cccs4)cc3)CC2)cc1,"inconclusive: 39.8 µM [inhibitor, partial curve]"
8,CCn1ccnc1CN1CCCC(CCc2ccc(OC)cc2)C1 (stereo unspecified),"inconclusive: 79.4 µM [inhibitor, partial curve, poor fit]"
9,O=C(NCc1nnc2ccc(-c3ccc(F)cc3)nn12)c1cccc(OC(F)(F)F)c1,"inconclusive: 15.8 µM [inhibitor, full curve]"
10,O=C(c1ccoc1)N1CCCN(Cc2ccc3c(c2)OCO3)c2ccccc21,"inconclusive: 44.7 µM [inhibitor, partial curve, poor fit]"
11,COCc1cc(=O)n(CC(=O)NCc2cccc(OC)c2)c(N2CCOCC2)n1,inactive
12,CCOC(=O)[C@@H]1CN(C(=O)c2ccc(C)cc2)[C@H]2c3ccccc3O[C@@H]12,"inconclusive: 44.7 µM [inhibitor, partial curve, poor fit]"
13,COc1cccc(S(=O)(=O)N2CCC(N3C(=O)[C@H](OC)[C@@H]3c3ccncc3)CC2)c1,inactive
14,O=c1c2nc(N3CCC(c4ccccc4)CC3)ccc2ncn1C1CC1,"inconclusive: 63.1 µM [inhibitor, partial curve, poor fit]"
15,CCc1cccc2c(C(CC(=O)N3CCCC3)c3ccc(Cl)c(Cl)c3)c[nH]c12 (stereo unspecified),"inconclusive: 20 µM [inhibitor, full curve, poor fit]"
16,O=C(CNC(=O)c1cccc(-c2ccc(C(F)(F)F)cc2)c1)NCc1cccs1,"inconclusive: 20 µM [inhibitor, full curve]"
17,CCOc1cccc(CN2CCC3(CC2)Cc2ccccc2CNC3=O)c1,inactive
18,COc1ccc(CN2CC3(CCN(C(=O)Cc4cccc(F)c4)CC3)C2=O)cc1,"inconclusive: 50.1 µM [inhibitor, partial curve, poor fit]"
19,CC1=C[C@@H](CNC(C)C)[C@H](C(C)C)C[C@H]1Cc1nnc(-c2ccncc2)o1,"inconclusive: 112 µM [inhibitor, partial curve, poor fit]"
20,CC1=C[C@@H](CNS(=O)(=O)c2cccs2)[C@H](C(C)C)C[C@H]1CC(=O)NCc1ccc(C#N)cc1,"inconclusive: 56.2 µM [inhibitor, partial curve, poor fit]"
21,O=C(N[C@H]1CO[C@H]2[C@@H]1OC[C@H]2OCc1ccccc1)c1ccc(C(F)(F)F)cc1,inactive

row,Compound,Potency
1,O=C(NCc1ccccn1)c1ccc2c(c1)N(C(=O)c1ccc(F)cc1)CC2,inactive
2,O=c1cc(N2CCOCC2)oc2c(NCc3ccncc3)nccc12,active: 44.7 µM
3,c1ccc2sc([C@H]3CCN(CC4CCCCC4)C3)nc2c1,"inconclusive: 100 µM [inhibitor, partial curve]"
4,COc1ccc(CNC(=O)CC[C@H]2CNC(=O)[C@@H]3[C@@H](CCN3C3CCCCC3)N2C)cc1,inactive
5,O=C(NCc1nnc2ccc(-c3ccc(Cl)cc3)nn12)C1(c2ccccc2)CC1,"inconclusive: 50.1 µM [inhibitor, single point]"
6,Cc1noc(C)c1-c1nccc2c(=O)cc(N(C)c3ccccc3)oc12,"inconclusive: 20 µM [inhibitor, full curve, poor fit]"
7,Cc1cc(-c2cc(C(=O)NCc3c(C)cc(C)[nH]c3=O)c3c(c2)ncn3C)ccn1,"inconclusive: 89.1 µM [inhibitor, partial curve, poor fit]"
8,OC1(CNCc2cccnc2-n2cncn2)CCNC1 (stereo unspecified),inactive
9,Cc1cc(F)ccc1OC1CN(Cc2cccnc2)C1,inactive
10,Cc1ccc(C)c(C(=O)NCCn2ccn3nc(-c4cc(C)ccc4C)cc3c2=O)c1,"inconclusive: 50.1 µM [inhibitor, partial curve, poor fit]"
11,Cc1ccc(Nc2ccnc(N3CCN(C(=O)C4CC4)CC3)n2)cc1,active: 31.6 µM
12,CC1(CCCCN2CCOCC2)COc2ccc(C(=O)Nc3ccc4[nH]ccc4c3)cc2N1 (stereo unspecified),inactive
13,CC(=O)N[C@H]1C[C@@H](Cc2cc(CC(C)C)on2)C1(C)C,"inconclusive: 112 µM [inhibitor, partial curve, poor fit]"
14,Cc1ccc(C(=O)N2CCC3(C2)C(=NC2CCCC2)NC(=O)N3c2cc(F)cc(F)c2)cc1 (stereo unspecified),"inconclusive: 50.1 µM [inhibitor, partial curve, poor fit]"
15,CCn1c(CO)nnc1C1CC(NC(=O)CCCc2ccc(F)cc2)C1 (stereo unspecified),inactive
16,Cc1ccc(C)c(CN2C[C@@H]3C(=O)N(CCN4CCc5ccccc5C4)C(=O)[C@@H]3C2)c1,"inconclusive: 35.5 µM [inhibitor, partial curve, poor fit]"
17,Cc1c(CN2CCCC(C(=O)Nc3cccc(-c4cc5ccccc5[nH]4)c3)C2)cnn1C (stereo unspecified),active: 8.91 µM
18,CN1CC[C@H]2COC(=O)N2c2ccccc2C1,inactive
19,CN1CCN([C@@H]2[C@H](O)[C@H](CO)O[C@@H]2CN(Cc2ccc(Cl)cc2)Cc2cccc(Cl)c2)CC1,active: 28.2 µM
20,COc1cccc(C(=O)N2CCCC(c3nn(-c4ccc(Cl)cc4)c(=O)[nH]3)C2)c1 (stereo unspecified),"inconclusive: 44.7 µM [inhibitor, partial curve, poor fit]"

# Source: PubChem BioAssay AID1345082 (National Center for Advancing Translational Sciences (NCATS), 2018)
